Literature values, collected in publication PMC11006913.
The list shows a part of the results.

Assays:
[1] = biological target: PROP1 R112Q (Homo sapiens) (UniProt O75360); conditions: PBM; conditions not shown; double strand, one strand shown; scale: upbm affinity estimate (log intensity, higher = more binding, comparable within an allelic series)
[2] = biological target: PROP1 R99Q (Homo sapiens) (UniProt O75360); conditions: PBM; conditions not shown; double strand, one strand shown; scale: upbm affinity estimate (log intensity, higher = more binding, comparable within an allelic series)

Sequence: CGGCCAGC [8-mer CGGCCAGC]
- binding signal [1]: 10.9
- binding signal [2]: 10.8

Sequence: CCGACGGC [8-mer CCGACGGC]
- binding signal [1]: 10.9
- binding signal [2]: 10.8

Sequence: CCCCGCGG [8-mer CCCCGCGG]
- binding signal [1]: 10.9
- binding signal [2]: 11

Sequence: CTCAGGCC [8-mer CTCAGGCC]
- binding signal [1]: 10.8
- binding signal [2]: 10.9

Sequence: GCCCCCGA [8-mer GCCCCCGA]
- binding signal [1]: 10.9
- binding signal [2]: 10.9

Sequence: CTGAGCCC [8-mer CTGAGCCC]
- binding signal [1]: 11
- binding signal [2]: 11

Sequence: TCCATTAA [8-mer TCCATTAA]
- binding signal [1]: 12.1
- binding signal [2]: 11.8

Sequence: CCCGGCAC [8-mer CCCGGCAC]
- binding signal [1]: 10.8
- binding signal [2]: 10.9

Sequence: CCCCCGGC [8-mer CCCCCGGC]
- binding signal [1]: 10.8
- binding signal [2]: 10.8

Sequence: CCGGCGGC [8-mer CCGGCGGC]
- binding signal [1]: 10.8
- binding signal [2]: 10.8

Sequence: CCCGAGCC [8-mer CCCGAGCC]
- binding signal [1]: 11
- binding signal [2]: 11

Sequence: GCTATAGC [8-mer GCTATAGC]
- binding signal [1]: 11.2
- binding signal [2]: 11.1

Sequence: CCGCCCAC [8-mer CCGCCCAC]
- binding signal [1]: 10.9
- binding signal [2]: 11

Sequence: CGTCCGGC [8-mer CGTCCGGC]
- binding signal [1]: 10.8
- binding signal [2]: 10.8

Sequence: CGGCGGCC [8-mer CGGCGGCC]
- binding signal [1]: 10.8
- binding signal [2]: 10.8

Sequence: AATTTCCA [8-mer AATTTCCA]
- binding signal [1]: 12
- binding signal [2]: 11.6

Sequence: GCCCTCGA [8-mer GCCCTCGA]
- binding signal [1]: 10.9
- binding signal [2]: 10.9

Sequence: CGAGAGGC [8-mer CGAGAGGC]
- binding signal [1]: 10.9
- binding signal [2]: 10.9

Sequence: CTCCTTCC [8-mer CTCCTTCC]
- binding signal [1]: 10.8
- binding signal [2]: 10.9

Sequence: GGCCAACA [8-mer GGCCAACA]
- binding signal [1]: 10.9
- binding signal [2]: 10.9

Sequence: AATTACCG [8-mer AATTACCG]
- binding signal [2]: 12.1

Sequence: TAATTTAA [8-mer TAATTTAA]
- binding signal [1]: 12.6
- binding signal [2]: 11.9

Sequence: CCCCTCAC [8-mer CCCCTCAC]
- binding signal [1]: 10.9
- binding signal [2]: 11
